Source: the supplement of paper PMC3334620
In all, about 33,000 sequences were measured (“E-score (-0.5 to 0.5)”: median about -0.054, highest 2% from about 0.35 on). Some of the results follow.

target: T1, Stb5 (UniProt P38699); experiment: PBM E-score (8-mer binding enrichment) (E-score (-0.5 to 0.5)); higher = stronger / more preferred TF binding; most listed sequences are background and not binding sites; details: protein concentration: 200 nM; construct: GST-full length
T1 sequence: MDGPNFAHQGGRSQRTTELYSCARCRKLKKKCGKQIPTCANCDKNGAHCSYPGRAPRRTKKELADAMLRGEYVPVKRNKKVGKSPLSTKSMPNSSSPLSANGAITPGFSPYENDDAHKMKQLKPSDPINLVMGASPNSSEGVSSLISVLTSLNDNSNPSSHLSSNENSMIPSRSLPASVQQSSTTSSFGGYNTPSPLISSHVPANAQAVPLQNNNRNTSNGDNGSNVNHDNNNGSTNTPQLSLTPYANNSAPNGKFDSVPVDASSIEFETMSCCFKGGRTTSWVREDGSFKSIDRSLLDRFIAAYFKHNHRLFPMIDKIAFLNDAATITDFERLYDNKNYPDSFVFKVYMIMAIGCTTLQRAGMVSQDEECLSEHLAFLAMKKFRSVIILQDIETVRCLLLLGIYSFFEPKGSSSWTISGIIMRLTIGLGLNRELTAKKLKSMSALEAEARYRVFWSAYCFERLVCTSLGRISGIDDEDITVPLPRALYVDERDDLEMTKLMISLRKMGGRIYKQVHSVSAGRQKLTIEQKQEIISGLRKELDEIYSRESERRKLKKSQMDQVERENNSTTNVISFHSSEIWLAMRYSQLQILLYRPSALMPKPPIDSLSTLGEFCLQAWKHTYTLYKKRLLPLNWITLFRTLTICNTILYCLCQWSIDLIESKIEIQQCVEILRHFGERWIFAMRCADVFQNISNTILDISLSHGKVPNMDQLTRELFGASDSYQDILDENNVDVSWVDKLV
Outline: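 Masliner-normalised scans of fluorescent anti-GST signal were the basis for scoring. That signal came from GST-tagged yeast transcription factors applied at about 100-200 nM to double-stranded universal all-10-mer Agilent arrays on fresh or once-stripped slides. Each ungapped eight-base word, pooled with its reverse complement, received an E-score from the Universal PBM Analysis Suite.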

Compared with AAAGGAAC, AGGCCCAT is lower in “PBM E-score” value: 0.0452 for the first, -0.28 for the second.

First: GAGGCCCC
Second: CTAACCTC
The “PBM E-score” value of the first is higher: -0.0211 for the first, -0.0311 for the second.

Compared with CCGAGAGC, ATTAGCAA is lower in “PBM E-score” value: 0.0793 for the first, -0.06 for the second.

Going from ACCGCCGC to AAAGGTTA, the “PBM E-score” value falls from 0.383 to -0.313.

First: ACCGCGTC
Second: TATCGTAA
The “PBM E-score” value of the first is higher: 0.182 for the first, -0.0935 for the second.

First: GGTGATAC
Second: AAAAGCAG
The “PBM E-score” value of the first is higher: 0.369 for the first, -0.395 for the second.

First: TCCGGCGA
Second: GACCTCCA
The “PBM E-score” value of the first is higher: 0.267 for the first, 0.0344 for the second.

Compared with AACGCGGC, CCGGACAA is higher in “PBM E-score” value: 0.225 for the first, 0.321 for the second.

Going from GGAGTATA to CGGTCTTC, the “PBM E-score” value falls from 0.315 to 0.227.

Going from GTGATCGA to CCCATGAG, the “PBM E-score” value falls from -0.171 to -0.192.

First: ATGAATGA
Second: GGAAAGCC
The “PBM E-score” value of the first is lower: -0.12 for the first, 0.0225 for the second.

First: ATTGGCCA
Second: TGGTGCAA
The “PBM E-score” value of the first is lower: -0.198 for the first, -0.166 for the second.

First: GTCCCTTA
Second: AACGACGA
The “PBM E-score” value of the first is higher: -0.0871 for the first, -0.0943 for the second.

Compared with GAGAGCTA, GAAGATGA is lower in “PBM E-score” value: -0.161 for the first, -0.208 for the second.

Compared with ACCGTACA, GTACGCCA is lower in “PBM E-score” value: 0.121 for the first, -0.13 for the second.

Compared with ACTAAACG, CTGACTAC is higher in “PBM E-score” value: -0.212 for the first, -0.144 for the second.

Compared with ACCGGCGA, ACTGTGAT is lower in “PBM E-score” value: 0.281 for the first, -0.134 for the second.

Going from CTCTATAA to TACTGACA, the “PBM E-score” value falls from -0.145 to -0.152.

Compared with CATATAGG, ATAAGCAC is higher in “PBM E-score” value: -0.105 for the first, 0.0792 for the second.

First: AAACTATC
Second: CTGGGTGC
The “PBM E-score” value of the first is lower: -0.115 for the first, -0.0644 for the second.

First: ACATCATC
Second: GGCCAATA
The “PBM E-score” value of the first is lower: -0.0646 for the first, 0.162 for the second.

Compared with CGATTCCG, AGCTTACA is lower in “PBM E-score” value: 0.243 for the first, -0.0474 for the second.

Going from CTCGTAGA to GGGAGGAA, the “PBM E-score” value rises from -0.338 to 0.0313.

First: TAGCGGCA
Second: GAAGTGGA
The “PBM E-score” value of the first is higher: 0.372 for the first, 0.0388 for the second.

Going from AAACCAGC to ATGTCCTA, the “PBM E-score” value rises from -0.0596 to 0.0642.

Going from ACATCCCT to TGTAGGAA, the “PBM E-score” value rises from -0.186 to -0.147.

Going from AGGTTGAA to CACGTCCC, the “PBM E-score” value falls from -0.025 to -0.137.

Going from AAGAGCTG to AAATACCG, the “PBM E-score” value rises from -0.24 to 0.432.

Going from AGGCCCAA to TTATAGAA, the “PBM E-score” value rises from -0.133 to -0.0532.

Compared with CGCCACAG, ATTGAAAG is lower in “PBM E-score” value: -0.00771 for the first, -0.0762 for the second.

Going from CCTGTTTC to CCGAAATA, the “PBM E-score” value rises from -0.296 to 0.316.

First: AGCAGTCA
Second: ACTTTTGG
The “PBM E-score” value of the first is lower: -0.265 for the first, -0.0525 for the second.

Compared with AAACCGTG, CCGTTACA is higher in “PBM E-score” value: -0.0899 for the first, 0.185 for the second.

First: CCTGCAGC
Second: GCCGCATA
The “PBM E-score” value of the first is lower: -0.251 for the first, 0.279 for the second.

Compared with TATCCATA, TGCCAACA is higher in “PBM E-score” value: -0.253 for the first, -0.198 for the second.

Compared with AAATAGAT, AGTTAGTG is lower in “PBM E-score” value: 0.104 for the first, -0.201 for the second.

Going from TATCGGGA to ATTGACCC, the “PBM E-score” value falls from 0.275 to 0.0691.

First: ACTCAACG
Second: ACGGCGCT
The “PBM E-score” value of the first is lower: 0.0371 for the first, 0.338 for the second.

Going from ACTTAAGG to ATAGGTGG, the “PBM E-score” value falls from 0.114 to -0.204.

First: CAAATCAG
Second: GGGGCCCA
The “PBM E-score” value of the first is lower: -0.234 for the first, -0.148 for the second.

Compared with TACGACGA, GGCTCATA is higher in “PBM E-score” value: -0.229 for the first, -0.0497 for the second.

Going from CTGATAGC to CATTCCGA, the “PBM E-score” value rises from 0.0355 to 0.0747.

Going from AGCACCTC to CCTAAATA, the “PBM E-score” value rises from -0.163 to -0.027.

First: ACCCCAAA
Second: ATATTTCA
The “PBM E-score” value of the first is lower: -0.179 for the first, -0.0823 for the second.

First: AACAAGGG
Second: AAACAAAC
The “PBM E-score” value of the first is higher: -0.0706 for the first, -0.153 for the second.

Going from CTCCCAAA to AAGATCTG, the “PBM E-score” value rises from -0.237 to -0.223.

Compared with AAAATGGT, CGCATCAA is higher in “PBM E-score” value: 0.0967 for the first, 0.126 for the second.

Going from GTTGTCAA to GCACATGA, the “PBM E-score” value falls from 0.0212 to -0.218.

First: CCCGGTCA
Second: AGAAAACC
The “PBM E-score” value of the first is higher: 0.237 for the first, 0.0845 for the second.

First: GGAATACC
Second: GCTATTAA
The “PBM E-score” value of the first is higher: 0.24 for the first, 0.104 for the second.

First: TCACTTAA
Second: AAGCCCCT
The “PBM E-score” value of the first is lower: -0.0332 for the first, 0.0404 for the second.

First: ATATTGAC
Second: GTAATACA
The “PBM E-score” value of the first is higher: -0.0193 for the first, -0.0433 for the second.

Going from ACCATTAG to CGACGTTA, the “PBM E-score” value falls from 0.172 to 0.144.

Compared with ACTACGGC, GACGCGGC is higher in “PBM E-score” value: 0.0314 for the first, 0.145 for the second.

Compared with CAAGCGGC, ACTTGACA is lower in “PBM E-score” value: 0.379 for the first, -0.1 for the second.

Going from CTCTTTAC to TTGACCAA, the “PBM E-score” value falls from 0.088 to -0.122.

Going from ACATGGCC to ACAACCTA, the “PBM E-score” value falls from -0.0187 to -0.122.

First: CGTAACAA
Second: ACGAGTCG
The “PBM E-score” value of the first is higher: 0.0955 for the first, -0.197 for the second.

First: CGAAGGAG
Second: ATAAACTA
The “PBM E-score” value of the first is lower: -0.0669 for the first, 0.0863 for the second.

Compared with ACGTCCGC, ACTCGAAA is lower in “PBM E-score” value: 0.367 for the first, -0.0845 for the second.

Compared with TACATCTA, GAGAGACC is higher in “PBM E-score” value: -0.137 for the first, 0.0815 for the second.

Going from ACAACCGT to GTCTCTGA, the “PBM E-score” value falls from -0.00109 to -0.076.

Going from CGCTTTAA to AATGTCAC, the “PBM E-score” value falls from 0.0868 to 0.0684.

Compared with ATTCTGTC, ACATAGCT is lower in “PBM E-score” value: -0.179 for the first, -0.185 for the second.

Compared with GATATAAC, GTGGGGGA is lower in “PBM E-score” value: 0.122 for the first, -0.2 for the second.

Going from CTTCCCAA to CGATTGGC, the “PBM E-score” value rises from -0.208 to -0.0397.

Going from ATCACCCG to CTCCAGCC, the “PBM E-score” value falls from 0.118 to -0.15.

Going from CTCGTCCC to ATTATTTG, the “PBM E-score” value rises from -0.0253 to 0.0339.

Going from ACCTTTCG to ATATCTCA, the “PBM E-score” value rises from 0.0279 to 0.0336.

Compared with GAGGCTGA, GGCGAGTA is higher in “PBM E-score” value: -0.201 for the first, -0.101 for the second.

Compared with GTGACTAA, GCCTAAGA is lower in “PBM E-score” value: -0.046 for the first, -0.17 for the second.

Compared with GAGTCCGA, ACCCACGA is lower in “PBM E-score” value: 0.286 for the first, 0.00701 for the second.

First: TACGAGTA
Second: TCTCCTCA
The “PBM E-score” value of the first is higher: -0.0315 for the first, -0.149 for the second.

Going from AAGTAAGC to CCGAGGTC, the “PBM E-score” value rises from -0.11 to 0.145.

Going from ATCCTTAA to GGAGTCTA, the “PBM E-score” value rises from -0.156 to 0.0281.

First: AAGAGTGC
Second: ACAAGTAT
The “PBM E-score” value of the first is higher: -0.0116 for the first, -0.0785 for the second.

Compared with AGTGGTAT, AATCGCCA is higher in “PBM E-score” value: -0.0708 for the first, -0.0689 for the second.

First: TCCCGAAA
Second: TCAAGGAA
The “PBM E-score” value of the first is higher: 0.171 for the first, -0.239 for the second.

Going from AGACTTAC to ACCACCCA, the “PBM E-score” value falls from -0.161 to -0.217.

Going from ATGCTCCG to AATTTGGT, the “PBM E-score” value falls from 0.165 to -0.146.

Compared with ACAGGTAA, AATGGATG is lower in “PBM E-score” value: -0.118 for the first, -0.343 for the second.

First: AATGTTTC
Second: ACACAACA
The “PBM E-score” value of the first is lower: -0.122 for the first, -0.0623 for the second.

Compared with GTTCTGGA, GCACATAA is higher in “PBM E-score” value: -0.175 for the first, 0.12 for the second.

Going from CCCCTTCG to CAGCGCCG, the “PBM E-score” value rises from -0.0277 to 0.299.

Compared with CAGCAGAC, CGGAGAAA is higher in “PBM E-score” value: -0.0728 for the first, 0.35 for the second.

Going from AACCTGCC to CCAGGTAC, the “PBM E-score” value falls from -0.15 to -0.212.
